# Some of the results follow.
# Target: T1, OsWOX13 (Oryza sativa, UniProt Q5QMM3 1-267)
# T1 sequence: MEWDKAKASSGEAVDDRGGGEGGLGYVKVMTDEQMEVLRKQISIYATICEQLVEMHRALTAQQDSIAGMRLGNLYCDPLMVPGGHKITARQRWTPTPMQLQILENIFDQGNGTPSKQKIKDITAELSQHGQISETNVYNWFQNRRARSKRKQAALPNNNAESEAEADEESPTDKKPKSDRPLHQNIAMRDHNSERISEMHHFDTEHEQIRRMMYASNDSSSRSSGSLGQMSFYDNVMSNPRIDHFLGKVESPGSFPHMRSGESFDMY
# Assay: protein-binding microarray (RPBM); PBS, 2% BSA, 51.3 ng/ul salmon testes DNA, 50 uM zinc acetate, 200 nM TF, 25 C, 1 h; high values mean tight binding
# Settings: protein: recombinant; tags: N-terminal polyhistidine and DsRed monomer fusion (pET32a); label: CyDye5-dUTP incorporated in the synthesized complementary strand; 3' TTTTT single-stranded linker to array surface; dsDNA, one strand shown
# Procedure, shortened: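 Binding signal is defined as the fluorescence intensity of each feature in arbitrary units, read on an Axon 4000B scanner. Transcription factors with N-terminal polyhistidine and DsRed fusions came from E. coli BL21-CodonPlus and were purified on Ni–NTA. They were incubated at 200 nM for 1 h at 25 °C on a custom Agilent array that had been made double-stranded with Cy5-dUTP, with 50 µM zinc acetate present, and the array was washed.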
row,Sequence,binding signal
1,CGTCGTCGTTAGTCTAATGATTGATTAGGAAGGAAAGTACCGGAGTCACCTAGTGCAG,29600 fluorescence intensity (a.u.)
2,TAATATTGACGAGAAAGCCACCTCCTCTCTCTCGCTCGCTCGGAGTCACCTAGTGCAG,3320 fluorescence intensity (a.u.)
3,GCAAAGTTAACTGAAATTGAATAGGCTTTGTTCAGATTCACGGAGTCACCTAGTGCAG,11500 fluorescence intensity (a.u.)
4,AAAATATTATCTAAATTATGGAGCAATTTAATGGCAAAATCGGAGTCACCTAGTGCAG,3770 fluorescence intensity (a.u.)
5,CGACCATGATTGACGCCTTCAAGGGTGCGAAACCGTCCTGCGGAGTCACCTAGTGCAG,50800 fluorescence intensity (a.u.)
6,ATTGATTTTAGTGCTTATATAAGTTTATATTGTTTAGCTACGGAGTCACCTAGTGCAG,13300 fluorescence intensity (a.u.)
7,GTTGTTGATGTGATTGTGTGTATTCAAGTAGAGATTGGGTCGGAGTCACCTAGTGCAG,24300 fluorescence intensity (a.u.)
8,CTAAATATTATATCATCAATCTCCGCCGACTCCCTCGAATCGGAGTCACCTAGTGCAG,6230 fluorescence intensity (a.u.)
9,GTCAAATTAAACTGCAATCCGCGCTAAGATGGGGAGTAACCGGAGTCACCTAGTGCAG,14100 fluorescence intensity (a.u.)
10,CCATTCACAAATTGGCAAGATTTTCCACTAAGAAATGCACCGGAGTCACCTAGTGCAG,16300 fluorescence intensity (a.u.)
11,TAATAATTATAAGCTGAATCAAACAGGGTCTTAGTTTTGGCGGAGTCACCTAGTGCAG,21100 fluorescence intensity (a.u.)
12,GAACAAATTGGAATTCGCTGGTTAGTCAAATACTGCACATCGGAGTCACCTAGTGCAG,12100 fluorescence intensity (a.u.)
13,GTGTGATGATTAGATATATTTGCATGTTGATTTGTTGAATCGGAGTCACCTAGTGCAG,49500 fluorescence intensity (a.u.)
14,GCACTAATTGGATAGATCCATCCATCACGATCGAGCTCACCGGAGTCACCTAGTGCAG,46900 fluorescence intensity (a.u.)
15,ATAATATGATAGAGGGAGTACCAATGTTTCGTTTTGGGTCCGGAGTCACCTAGTGCAG,3400 fluorescence intensity (a.u.)
16,GCCAATAATTTCTTGACGACAACGACATACTACCTCCATTCGGAGTCACCTAGTGCAG,15200 fluorescence intensity (a.u.)
17,AAATAATTTCAACATTAGGCTACGATCAGTTGAGCCACTGCGGAGTCACCTAGTGCAG,3980 fluorescence intensity (a.u.)
18,CTGTTTGATTTAGCTTAGGATTATTAGGTGTAAGCTGAAACGGAGTCACCTAGTGCAG,3910 fluorescence intensity (a.u.)
19,TTTCTTGTTGATTGCAGGATCAAATCAACTGGCACGCTCACGGAGTCACCTAGTGCAG,19100 fluorescence intensity (a.u.)
20,TCTAATTTTAACGTGGAACTATATGATACGTTGAATTTTACGGAGTCACCTAGTGCAG,5360 fluorescence intensity (a.u.)
21,AAACAAATTAACAGTATATTTTGAAATTTATTTCGAATACCGGAGTCACCTAGTGCAG,16800 fluorescence intensity (a.u.)

row,Sequence,binding signal
1,TATGAGCGTGAACTGATTGGACTTGTCCAAGCAGTTCGCCCGGAGTCACCTAGTGCAG,5720 fluorescence intensity (a.u.)
2,AGGACCATCATAATCGTAATCATCACACCAACAACATCGCCGGAGTCACCTAGTGCAG,3150 fluorescence intensity (a.u.)
3,GTTCTTCCTCTCTGATTGCTCAACGACAAGTGGTCAACACCGGAGTCACCTAGTGCAG,3790 fluorescence intensity (a.u.)
4,TGCATATATATTCTAATTAGCGCACATGCACACACACCTTCGGAGTCACCTAGTGCAG,4760 fluorescence intensity (a.u.)
5,AGCTTAATGTGATGTATGTTGTGCAGTAGAACAAAGTTCCCGGAGTCACCTAGTGCAG,3830 fluorescence intensity (a.u.)
6,TAAGCTCATTGTTCATGTGACGTATACGAACATCTCAGTACGGAGTCACCTAGTGCAG,3670 fluorescence intensity (a.u.)
7,TAATCTAGATTATTGAGCCAGATTACTATAGCTAGATTATCGGAGTCACCTAGTGCAG,3750 fluorescence intensity (a.u.)
8,GATCTAATCGATGACACCAATCATGATACTCCCTACATAACGGAGTCACCTAGTGCAG,8120 fluorescence intensity (a.u.)
9,ATTCGTAACCACTTAATTACCCATTTATCCCCTTCTGATTCGGAGTCACCTAGTGCAG,10600 fluorescence intensity (a.u.)
10,ATGGATTAATTAGGCTCAATAGATTCGTCTCGTGAATTAGCGGAGTCACCTAGTGCAG,29300 fluorescence intensity (a.u.)
11,GGCCATGTTAATTTTGCTCTACAATTTCTAACGAATTTAGCGGAGTCACCTAGTGCAG,3990 fluorescence intensity (a.u.)
12,ATCTGATTATCCCCAAAATTGAAAGCACGCTCCATCTGCTCGGAGTCACCTAGTGCAG,48600 fluorescence intensity (a.u.)
13,TTTTCCAGAATTAATTTTGTAAATATATGGAAAATTATGTCGGAGTCACCTAGTGCAG,3400 fluorescence intensity (a.u.)
14,GTAAATTTATTAATTATTTTACAATATAGCATTTGGCTAACGGAGTCACCTAGTGCAG,45300 fluorescence intensity (a.u.)
15,GTTAACTCGCTAATGACCTTATTATACTCCTGTTTCATCCCGGAGTCACCTAGTGCAG,3450 fluorescence intensity (a.u.)
16,CTACCGTCCTGCAGCTGATTAAATCCTGATTCCGATTGCTCGGAGTCACCTAGTGCAG,4180 fluorescence intensity (a.u.)
17,ATTTGATTTTGAGATAGATACCTCAAGAACACGAAGAACACGGAGTCACCTAGTGCAG,7020 fluorescence intensity (a.u.)
18,TGGATTTATACTTGATTTGGTGCGTAGTATCAGGGGTATTCGGAGTCACCTAGTGCAG,6760 fluorescence intensity (a.u.)
19,AGGAACAGTAAACATAGATTGATCCAAATCTTTCATCAGTCGGAGTCACCTAGTGCAG,18500 fluorescence intensity (a.u.)
20,ATCGCAAATTTGGCTTCCTTTTCACCTTTCCTCGCTTCAACGGAGTCACCTAGTGCAG,7180 fluorescence intensity (a.u.)
21,CTAAATTTAGAATTTTCAATCTTAAATTTAAAGATGATTTCGGAGTCACCTAGTGCAG,14600 fluorescence intensity (a.u.)
